Each structure is given as a SMILES string. In all, about 150,000 compounds went through this assay and about 540 (0.36%) showed an effect of 50% or more. Some of the results follow.

For this experiment, the system named is Plasmodium falciparum. Description: Primary screen in NF54 nanoGlo assay, in single point, at 2uM, 72h; a lower Z score goes with more inhibition. The format is functional, Erythrocyte. To be noted: timepoint 72 hour.
As usually defined, the % Inhibition is the change of the read-out against control, counted positive when it falls. As to `COc1ccc(CCC(=O)N2CC(c3nc(-c4cccc(Cl)c4)no3)C2)cc1`, the “% Inhibition” value is reported as -6% and the Z score turned out to be 1.21.
Regarding `Cc1ccccc1CNC(=O)[C@H]1CCCN(C2CCN(Cc3ccncc3)CC2)C1`, the “% Inhibition” value came to 12% and the Z score is -1.56.
In the case of `Cc1cc2nn(CC(=O)Nc3ccc(F)c(F)c3)c(=O)n2c(Nc2ccccc2)n1`, the “% Inhibition” value worked out at 10% and the Z score is recorded as -1.83.
The corresponding values for `Cc1nn(C)c(C)c1C(=O)N1CCCC[C@H]1c1cnn(C)c1` are -17% and 2.66.
The corresponding values for `COC[C@@]12CCN(C(=O)Nc3cccc(C(F)(F)F)c3)C[C@@H]1CN(S(C)(=O)=O)C2` are -1% and 0.07.
On to `Cc1nc(COc2nc(C(C)(C)C)no2)cs1`, for which the “% Inhibition” value turned out to be 41% and the Z score is -5.98.
The corresponding values for `Cc1ccc(-n2ncc3c2CC(C)(C)C[C@@H]3NCc2ccc(CO)o2)cc1` are -18% and 1.71.
The corresponding values for `Cc1csc([C@H](C)Nc2ccc3nnc(C)n3n2)n1` are -6% and 0.8.
The corresponding values for `CC(C)CN1C(=O)CC[C@@H]2CN(C(=O)c3onc4c3CCCC4)CC[C@@H]21` are -5% and 0.66.
Take `CCNC(=O)[C@@H]1C[C@@H](NC(=O)c2csc(C)n2)CN1C(=O)c1ccoc1`: the “% Inhibition” value is given as -5% and the Z score is given as 0.65.
The corresponding values for `COc1ccc(CN2C(=O)N[C@@](C)(c3cnn(C)c3)C2=O)c(Cl)c1` are -5% and 0.97.
The like results for `Cn1nc(C2CCOCC2)cc1C(=O)NC[C@H]1CCC(C)(C)O1` were, in that order, -1% and 0.17.
For the molecule `O=C(CCn1cnccc1=O)N[C@H]1CCCc2c(F)cc(Cl)cc21`, the “% Inhibition” value stood at 3% and the Z score was -0.44.
For the molecule `CCCN(C[C@H]1CCCCO1)C(=O)c1nccnc1N`, the “% Inhibition” value is on record as 4% and the Z score was -0.76.
The like results for `CCN1C(=O)CO[C@H](c2nc(-c3ccnc4[nH]ccc34)no2)[C@H]1c1cnn(C)c1` were, in that order, 6% and -0.98.
The corresponding values for `Cc1cnn(CC2CCN(Cc3cc4n(n3)CCNC4)CC2)c1` are -6% and 1.19.
The corresponding values for `Cc1cc(CN2CCc3c(c(CCC(=O)N4CCOCC4)nn3C)C2)n(C)n1` are -10% and 1.4.
On to `O=C(NCCCc1ccccc1)C1CCN(c2ccc3nncn3n2)CC1`, for which the “% Inhibition” value is -14% and the Z score amounted to 2.18.
In the case of `COc1ccc2oc(C(=O)N3CC[C@H](Oc4ccc(Br)cn4)C3)cc2c1`, the “% Inhibition” value is -13% and the Z score is reported as 2.4.
The corresponding values for `CC(=O)NCCc1nc(Cc2ccccc2)cs1` are 3% and -0.4.
The like results for `O=C([C@@H]1CCCc2cccnc21)N1CCC(O)(Cc2ccc(F)cc2)CC1` were, in that order, -17% and 1.67.
As for `CC(C)[C@H](CNc1nc2ccccc2o1)N1CCN(C)CC1`, the “% Inhibition” value was 10% and the Z score is reported as -1.26.
The like results for `CCN1Cc2nc(OC)c(CNC(=O)c3cc(CC(C)C)[nH]c(=O)n3)cc2C1=O` were, in that order, -7% and 0.89.
The like results for `CC(=O)c1ccc(Cl)c(S(=O)(=O)Nc2nnc3ccccn23)c1` were, in that order, -9% and 1.21.
The like results for `CCn1ccc(C(=O)N2CC[C@@]3(CCCN(CC4CC4)C3=O)C2)cc1=O` were, in that order, -11% and 1.68.
Turning to `CC(=O)c1nn(C)cc1OCCC1CCC1`, the “% Inhibition” value turned out to be 2% and the Z score is on record as -0.26.
Take `CC(C)C(CNCc1nnn(C)n1)C(C)C`: the “% Inhibition” value stood at 35% and the Z score is listed as -5.
The corresponding values for `CC(Cn1ncc2ccccc2c1=O)NC(=O)[C@H]1C[C@@H]1c1ccncc1` (stereo partly specified) are 8% and -1.02.
As for `CCN1C[C@H](CN(C)C(C)=O)Oc2ccccc21`, the “% Inhibition” value is -36% and the Z score came out at 4.25.
The like results for `O=C(Nc1scnc1C1CC1)NC1CCN(CC2CC2)CC1` were, in that order, -1% and 0.15.
On to `COC(=O)c1[nH]c(C)c(CN(C)C(=O)c2ccc(Cl)cc2)c1C`, for which the “% Inhibition” value is -9% and the Z score is 1.31.
As to `Cc1cccc(C(=O)N2CC(=O)N3CCc4ccccc4[C@@H]3C2)c1`, the “% Inhibition” value amounted to 0% and the Z score is recorded as -0.01.
The like results for `O=C(NCCc1c[nH]cn1)[C@H]1CC(=O)N(c2[nH]nc3ccccc23)C1` were, in that order, -10% and 1.17.
With `O=C(Cc1ccon1)N1C[C@@H]2CCCN(C(=O)Cc3ccon3)[C@@H]2C1`, the “% Inhibition” value is reported as -5% and the Z score is reported as 0.75.
The corresponding values for `O=C(c1noc(-c2cccc(F)c2)n1)N1CC(O)(C(F)F)C1` are -4% and 0.37.
Consider `Cc1nnc(CN(C)Cc2cc(C(=O)O)ccc2Cl)s1`, for which the “% Inhibition” value is given as -7% and the Z score is 0.77.
The corresponding values for `CC1(C)CN(C(=O)c2c[nH]nc2-c2ccoc2)C[C@H](CO)O1` are -1% and 0.2.
The like results for `O=C(N[C@H]1CCOC[C@@H]1Oc1ccccn1)c1ccc(CO)o1` were, in that order, 11% and -2.01.
`C[C@H](O)Cc1cn(C2CCN(c3ncnc4[nH]cnc34)CC2)nn1`: the “% Inhibition” value is given as -9% and the Z score is recorded as 1.62.
The corresponding values for `O=C(Nc1ccc(N2CCCC2)c2ncccc12)c1sccc1Cl` are -3% and 0.45.
The corresponding values for `COC(=O)c1nc(NC(=O)C(C)C)sc1CCc1ccccc1` are -4% and 0.7.
The like results for `CCc1ccc(-c2cc(C(F)(F)F)on2)cc1S(=O)(=O)NCc1cccc(OC)c1` were, in that order, -8% and 1.23.
For the molecule `CN(CCc1ccc(Br)cc1)C(=O)C[C@H](N)C1CC1`, the “% Inhibition” value was -3% and the Z score is given as 0.35.
The corresponding values for `O=C(Nc1cc(F)ccc1N1CCCCC1)N[C@@H](CCO)C1CC1` are -9% and 1.77.
The like results for `CC(C)(C)c1csc([C@@H]2CN(C(=O)Cc3cncs3)CCO2)n1` were, in that order, 2% and -0.45.
The like results for `C[C@@]1(C(=O)NC2CCN(Cc3ccccc3)CC2)CCCCC(=O)N1` were, in that order, 2% and -0.28.
For the molecule `O=S1(=O)CCC[C@@]2(C(F)(F)F)CN(S(=O)(=O)C3CC3)C[C@H]21`, the “% Inhibition” value was -6% and the Z score is on record as 0.72.
Take `Cc1cc(C(=O)N2CCN(C)C[C@@H]2C)c2n[nH]cc2c1`: the “% Inhibition” value was determined as 3% and the Z score is -0.27.
The like results for `O=C(Nc1nncs1)[C@H]1CC(=O)N(c2n[nH]c3cccc(F)c23)C1` were, in that order, 5% and -0.58.
The corresponding values for `CCOc1cc([C@H]2NCCc3c2[nH]c2ccccc32)ccc1OCc1ccccc1Cl` are 1% and -0.06.
For `CC(C)c1ccc([C@H]2C[C@@H](c3ccc(F)cc3)Nc3ncnn32)cc1`, the “% Inhibition” value was -2% and the Z score turned out to be 0.28.
The corresponding values for `COc1ccccc1-c1nnc2c(C(=O)Nc3cccc(C)c3)cccn12` are -8% and 1.25.
The like results for `Cc1oc(-c2ccccc2)nc1CN1CC[S@@+]([O-])CC1(C)C` were, in that order, -10% and 1.82.

For the origin of these results see ChEMBL document CHEMBL4888484, “Replenishing the malaria drug discovery pipeline: Screening and hit evaluation of the MMV Hit Generation Library 1 (HGL1) against asexual blood stage Plasmodium falciparum ,using a nano luciferase reporter read-out” (2022).
